Test results from PMC9911399, “Two distinct binding modes provide the RNA-binding protein RbFox with extraordinary sequence specificity”.
Residue numbers refer to the chain shown, from its start. The list shows a part of the results.

T1: RBFOX1 RRM (Homo sapiens, UniProt Q9NWB1 109-208)
T1 sequence: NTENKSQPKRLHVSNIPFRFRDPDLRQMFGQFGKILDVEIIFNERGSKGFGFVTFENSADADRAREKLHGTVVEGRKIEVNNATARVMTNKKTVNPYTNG

B1: GGCACGG (DNA:RNA)
RNA: GGGAGACCGGAAUUCAGAUUGUCCGGCACGGUUAAAUCCCGUCGUAGCCACCA
DNA 1: CAATCTGAATTCCGGTCTCCC
DNA 2: TGGTGGCTACGACGGGATT
B2: CCCCAAU (DNA:RNA)
RNA: B1 RNA with G25C, G26C, A28C, C29A, G30A, G31U
DNA 1: CAATCTGAATTCCGGTCTCCC
DNA 2: TGGTGGCTACGACGGGATT
B3: UUCCCCU (DNA:RNA)
RNA: B1 RNA with G25U, G26U, A28C, G30C, G31U
DNA 1: CAATCTGAATTCCGGTCTCCC
DNA 2: TGGTGGCTACGACGGGATT
B4: AAACAUU (DNA:RNA)
RNA: GGGAGACCGGAAUUCAGAUUGUCCAAACAUUUUAAAUCCCGUCGUAGCCACCA
DNA 1: CAATCTGAATTCCGGTCTCCC
DNA 2: TGGTGGCTACGACGGGATT
B5: GGUGGGG (DNA:RNA)
RNA: B1 RNA with C27U, A28G, C29G
DNA 1: CAATCTGAATTCCGGTCTCCC
DNA 2: TGGTGGCTACGACGGGATT
B6: CGUAAAC (DNA:RNA)
RNA: B1 RNA with G25C, C27U, C29A, G30A, G31C
DNA 1: CAATCTGAATTCCGGTCTCCC
DNA 2: TGGTGGCTACGACGGGATT
B7: CCUGUUC (DNA:RNA)
RNA: B4 RNA with A25C, A26C, A27U, C28G, A29U, U31C
DNA 1: CAATCTGAATTCCGGTCTCCC
DNA 2: TGGTGGCTACGACGGGATT
B8: CUUCUGU (DNA:RNA)
RNA: B4 RNA with A25C, A26U, A27U, A29U, U30G
DNA 1: CAATCTGAATTCCGGTCTCCC
DNA 2: TGGTGGCTACGACGGGATT
B9: GAAUGGC (DNA:RNA)
RNA: B4 RNA with A25G, C28U, A29G, U30G, U31C
DNA 1: CAATCTGAATTCCGGTCTCCC
DNA 2: TGGTGGCTACGACGGGATT
B10: GGGGCAA (DNA:RNA)
RNA: B1 RNA with C27G, A28G, G30A, G31A
DNA 1: CAATCTGAATTCCGGTCTCCC
DNA 2: TGGTGGCTACGACGGGATT
B11: GUCCCGU (DNA:RNA)
RNA: B1 RNA with G26U, A28C, G31U
DNA 1: CAATCTGAATTCCGGTCTCCC
DNA 2: TGGTGGCTACGACGGGATT
B12: UCACCAU (DNA:RNA)
RNA: B4 RNA with A25U, A26C, A29C, U30A
DNA 1: CAATCTGAATTCCGGTCTCCC
DNA 2: TGGTGGCTACGACGGGATT
B13: AUUUGCC (DNA:RNA)
RNA: B4 RNA with A26U, A27U, C28U, A29G, U30C, U31C
DNA 1: CAATCTGAATTCCGGTCTCCC
DNA 2: TGGTGGCTACGACGGGATT
B14: CCUUAGA (DNA:RNA)
RNA: B4 RNA with A25C, A26C, A27U, C28U, U30G, U31A
DNA 1: CAATCTGAATTCCGGTCTCCC
DNA 2: TGGTGGCTACGACGGGATT
B15: GCAGGGU (DNA:RNA)
RNA: B4 RNA with A25G, A26C, C28G, A29G, U30G
DNA 1: CAATCTGAATTCCGGTCTCCC
DNA 2: TGGTGGCTACGACGGGATT
B16: CCCAUAG (DNA:RNA)
RNA: B1 RNA with G25C, G26C, C29U, G30A
DNA 1: CAATCTGAATTCCGGTCTCCC
DNA 2: TGGTGGCTACGACGGGATT
B17: GCUCCGC (DNA:RNA)
RNA: B1 RNA with G26C, C27U, A28C, G31C
DNA 1: CAATCTGAATTCCGGTCTCCC
DNA 2: TGGTGGCTACGACGGGATT
B18: UAAAAUU (DNA:RNA)
RNA: B4 RNA with A25U, C28A
DNA 1: CAATCTGAATTCCGGTCTCCC
DNA 2: TGGTGGCTACGACGGGATT
B19: UGGUCAU (DNA:RNA)
RNA: B1 RNA with G25U, C27G, A28U, G30A, G31U
DNA 1: CAATCTGAATTCCGGTCTCCC
DNA 2: TGGTGGCTACGACGGGATT
B20: UAUUGUG (DNA:RNA)
RNA: B4 RNA with A25U, A27U, C28U, A29G, U31G
DNA 1: CAATCTGAATTCCGGTCTCCC
DNA 2: TGGTGGCTACGACGGGATT
B21: CCGUACA (DNA:RNA)
RNA: B4 RNA with A25C, A26C, A27G, C28U, U30C, U31A
DNA 1: CAATCTGAATTCCGGTCTCCC
DNA 2: TGGTGGCTACGACGGGATT
B22: AGUUGAU (DNA:RNA)
RNA: B4 RNA with A26G, A27U, C28U, A29G, U30A
DNA 1: CAATCTGAATTCCGGTCTCCC
DNA 2: TGGTGGCTACGACGGGATT
B23: UGGGGGU (DNA:RNA)
RNA: B1 RNA with G25U, C27G, A28G, C29G, G31U
DNA 1: CAATCTGAATTCCGGTCTCCC
DNA 2: TGGTGGCTACGACGGGATT
B24: UUGUGAG (DNA:RNA)
RNA: B1 RNA with G25U, G26U, C27G, A28U, C29G, G30A
DNA 1: CAATCTGAATTCCGGTCTCCC
DNA 2: TGGTGGCTACGACGGGATT
B25: GAGCCCA (DNA:RNA)
RNA: B4 RNA with A25G, A27G, A29C, U30C, U31A
DNA 1: CAATCTGAATTCCGGTCTCCC
DNA 2: TGGTGGCTACGACGGGATT
B26: GCCCCGC (DNA:RNA)
RNA: B1 RNA with G26C, A28C, G31C
DNA 1: CAATCTGAATTCCGGTCTCCC
DNA 2: TGGTGGCTACGACGGGATT
B27: GCAUAAA (DNA:RNA)
RNA: B4 RNA with A25G, A26C, C28U, U30A, U31A
DNA 1: CAATCTGAATTCCGGTCTCCC
DNA 2: TGGTGGCTACGACGGGATT
B28: UGCCUCA (DNA:RNA)
RNA: B1 RNA with G25U, A28C, C29U, G30C, G31A
DNA 1: CAATCTGAATTCCGGTCTCCC
DNA 2: TGGTGGCTACGACGGGATT
B29: AGAUGUA (DNA:RNA)
RNA: B4 RNA with A26G, C28U, A29G, U31A
DNA 1: CAATCTGAATTCCGGTCTCCC
DNA 2: TGGTGGCTACGACGGGATT
B30: UGACAUA (DNA:RNA)
RNA: B4 RNA with A25U, A26G, U31A
DNA 1: CAATCTGAATTCCGGTCTCCC
DNA 2: TGGTGGCTACGACGGGATT
B31: ACCCACU (DNA:RNA)
RNA: B4 RNA with A26C, A27C, U30C
DNA 1: CAATCTGAATTCCGGTCTCCC
DNA 2: TGGTGGCTACGACGGGATT

Molecular target: T1, RBFOX1 RRM
Experiment: EMSA; HiTS-Eq, 1 nM pool, 10 min; buffer printed only for the single-RNA assays: 10 mM Tris pH 7.5, 150 mM NaCl, 3.4 mM EDTA, 0.001% NP-40, 30 C
Details: tags: His6 N-terminal (pET28a); label: 5' 32P
Outline: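 Relative association constants, normalised to the cognate motif, were derived by comparing read counts of each RNA species with those of the control reaction. The RNA sequenced was the free fraction, separated by 8% native PAGE after a 10 min equilibration in 50 µL of 1 nM 5′-radiolabelled RNA (7 randomized nucleotides) with increasing concentrations of purified wild-type or mutant RbFox RRM.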

| Binder | binding signal |
| --- | --- |
| B1 | 0.0171 KA relative to UGCAUGU |
| B2 | 0.00262 KA relative to UGCAUGU |
| B3 | 0.0043 KA relative to UGCAUGU |
| B4 | 0.00283 KA relative to UGCAUGU |
| B5 | 0.0146 KA relative to UGCAUGU |
| B6 | 0.00197 KA relative to UGCAUGU |
| B7 | 0.0105 KA relative to UGCAUGU |
| B8 | 0.0178 KA relative to UGCAUGU |
| B9 | 0.0189 KA relative to UGCAUGU |
| B10 | 0.032 KA relative to UGCAUGU |
| B11 | 0.00957 KA relative to UGCAUGU |
| B12 | 0.000425 KA relative to UGCAUGU |
| B13 | 0.00754 KA relative to UGCAUGU |
| B14 | 0.00753 KA relative to UGCAUGU |
| B15 | 0.01 KA relative to UGCAUGU |
| B16 | 0.000272 KA relative to UGCAUGU |

| Binder | binding signal |
| --- | --- |
| B17 | 0.0135 KA relative to UGCAUGU |
| B18 | 0.00426 KA relative to UGCAUGU |
| B19 | 0.0144 KA relative to UGCAUGU |
| B20 | 0.0249 KA relative to UGCAUGU |
| B21 | 0.0046 KA relative to UGCAUGU |
| B22 | 0.0101 KA relative to UGCAUGU |
| B23 | 0.0229 KA relative to UGCAUGU |
| B24 | 0.0152 KA relative to UGCAUGU |
| B25 | 0.00799 KA relative to UGCAUGU |
| B26 | 0.00766 KA relative to UGCAUGU |
| B27 | 0.00438 KA relative to UGCAUGU |
| B28 | 0.0121 KA relative to UGCAUGU |
| B29 | 0.00663 KA relative to UGCAUGU |
| B30 | 0.00936 KA relative to UGCAUGU |
| B31 | 0.00374 KA relative to UGCAUGU |
